# Assay results from publication PMC4336329 (PLoS ONE, 2015).
# The whole screen tested about 310,000 compounds, of which about 14,000 (4.5%) showed an effect of 50% or more. The effect is printed as a negative number. The list shows a part of the results.
# Molecular target: human ether-à-go-go-related gene (hERG) potassium channel (human, UniProt Q12809)
# Assay: primary screen, population patch clamp on CHO cells stably expressing hERG
# 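Note: peak tail current of the secondary pulse compared with the same well before compound.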
# human ether-à-go-go-related gene (hERG) potassium channel, sequence (Q12809 whole entry, looked up): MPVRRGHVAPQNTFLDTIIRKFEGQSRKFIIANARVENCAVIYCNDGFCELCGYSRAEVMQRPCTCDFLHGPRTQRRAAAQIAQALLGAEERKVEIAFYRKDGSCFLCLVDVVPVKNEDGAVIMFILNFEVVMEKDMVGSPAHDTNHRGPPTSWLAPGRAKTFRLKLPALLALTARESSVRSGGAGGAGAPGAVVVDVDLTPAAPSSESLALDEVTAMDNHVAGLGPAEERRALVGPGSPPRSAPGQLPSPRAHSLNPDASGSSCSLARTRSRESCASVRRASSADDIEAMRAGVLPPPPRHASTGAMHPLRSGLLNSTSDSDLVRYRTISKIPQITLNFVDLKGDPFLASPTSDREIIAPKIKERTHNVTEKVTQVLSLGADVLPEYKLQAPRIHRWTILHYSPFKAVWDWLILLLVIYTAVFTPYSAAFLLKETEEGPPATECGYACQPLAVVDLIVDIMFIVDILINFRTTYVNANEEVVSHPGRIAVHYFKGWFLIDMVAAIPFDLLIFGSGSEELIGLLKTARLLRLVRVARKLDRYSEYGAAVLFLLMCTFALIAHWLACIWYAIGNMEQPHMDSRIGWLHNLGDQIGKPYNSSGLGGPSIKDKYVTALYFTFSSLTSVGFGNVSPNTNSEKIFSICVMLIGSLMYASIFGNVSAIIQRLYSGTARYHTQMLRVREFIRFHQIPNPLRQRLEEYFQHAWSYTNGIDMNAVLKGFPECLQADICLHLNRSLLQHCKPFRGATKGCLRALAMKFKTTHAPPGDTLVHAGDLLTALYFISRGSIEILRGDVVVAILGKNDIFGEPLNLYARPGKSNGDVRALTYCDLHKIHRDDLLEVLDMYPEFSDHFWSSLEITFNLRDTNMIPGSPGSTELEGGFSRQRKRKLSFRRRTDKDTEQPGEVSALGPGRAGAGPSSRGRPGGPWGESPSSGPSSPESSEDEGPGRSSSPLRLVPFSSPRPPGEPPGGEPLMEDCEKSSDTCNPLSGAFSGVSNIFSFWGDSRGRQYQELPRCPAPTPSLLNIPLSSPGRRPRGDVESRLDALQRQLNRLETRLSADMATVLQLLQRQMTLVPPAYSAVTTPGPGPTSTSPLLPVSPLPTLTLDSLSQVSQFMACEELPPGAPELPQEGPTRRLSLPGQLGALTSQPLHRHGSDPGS
row,Structure (SMILES),"hERG current change (%, negative = inhibition) at 10uM"
1,CC(C(=O)N1CCCCC1)N1C(=O)c2ccccc2C1=O (centres unmarked),4.41%
2,CCOc1ccc(NC(=O)COc2ccc(C(=O)NC(C)c3ccc(S(N)(=O)=O)cc3)cc2OC)cc1 (centres unmarked),-0.0396%
3,CCOC(=O)C1=C(c2ccccc2)OC(N)=C(C#N)C1c1ccco1 (centres unmarked),10.9%
4,O=[N+]([O-])c1c(NCCCO)cc(N2CCCCCC2)c2nonc12,-5.66%
5,CN(CC(=O)Nc1ccccc1Br)C(=O)c1ccccc1-c1nc2ccccc2s1,-26.3%
6,CC(C)Cc1nnc(NC(=O)CCC(=O)N2CCCCC2)s1,8.77%
7,Cc1cccc(C(=O)N2CC(=O)Nc3ccc(F)cc3C2c2ccc(F)cc2)c1 (centres unmarked),2.54%
8,COc1ccc(C(=O)CSc2nnc(-c3cnccn3)n2Cc2ccco2)cc1,-10.2%
9,CCOC(=O)c1c(C)n(C(=O)c2ccco2)c(=O)n1C(=O)c1ccco1,-10.9%
10,CC(=O)Nc1nc(N)n(-c2ccccc2)n1,3.2%
11,O=C(Cc1ccccc1)Nc1ccc(NC(=O)c2ccc(Br)cc2)cc1,15.4%
12,O=C(c1ccccc1Br)N1CCN(c2ncccn2)CC1,20.3%
13,CC1CCN(c2ccccc2NC(=O)c2ccc(F)cc2)CC1,6.41%
14,CC(C)(C)Nc1scc(-c2ccccc2)[n+]1-c1ccccc1.[Br-],4.85%
15,CCN(CC)CCCSc1nc2ccccc2s1.O=C(O)C(=O)O,-31.9%
16,CC1Cc2ccccc2N1c1ncnc(N)c1[N+](=O)[O-] (centres unmarked),-24.2%
17,Cc1nc2sccc2c(=O)n1-c1cccc(Cl)c1,-6.82%
18,COc1cc2[nH]c(=S)n(CC3CCCO3)c(=O)c2cc1OC (centres unmarked),-0.417%
19,Cc1ccc(C2(C)NC(=O)N(CC(=O)NNC(=O)c3cc(C)oc3C)C2=O)cc1 (centres unmarked),12.9%
20,O=C1Nc2ccccc2C12OCC(COc1ccc(Cl)cc1)O2 (centres unmarked),0.979%
21,CCN1C[C@]2(COC)CC[C@H](O)[C@@]34C5C[C@@H]6[C@@H](OC)C[C@@](O)(C5[C@H]6O)[C@](O)([C@@H](OC)C23)[C@@H]14 (some centres unmarked),-1.74%
22,COc1ccc2c(c1)[nH]c1c(=O)n(CCN3CCOCC3)cnc12,8.72%

row,Structure (SMILES),"hERG current change (%, negative = inhibition) at 10uM"
1,O=C(O)c1ccccc1C(=O)N1CCc2c([nH]c3ccccc23)C1C(F)(F)F (centres unmarked),16.7%
2,Cc1cc(Nc2ccc([N+](=O)[O-])cc2)nc2ccccc12,14.9%
3,COc1ccccc1NC(=O)c1c([N+](=O)[O-])c(C(C)(C)C)nn1C,-6.71%
4,CC(C)(C)c1ccc(NC(=O)NCc2ccco2)cc1,-2.22%
5,CCc1nn(CC(=O)NCCc2ccc(OC)cc2OC)c(=O)c2cc3occc3n12,6.13%
6,O=C1CCCC/C1=C/Nc1ccc2c(c1)OCO2,8.92%
7,COc1ccc(C2CC(c3ccc(C)o3)=NN2C(C)=O)cc1 (centres unmarked),7.14%
8,Cc1cc(NC(=O)CCC(=O)N(c2ccccc2)C(C(=O)NC2CCCC2)c2ccccc2)no1 (centres unmarked),-1.39%
9,CN1CCN(C(=S)Nc2cc([N+](=O)[O-])ccc2Cl)CC1,-0.759%
10,Cc1ccc(CNC(=O)c2cccc3c2C(=O)c2ccc(N4CCC(C)CC4)cc2S3(=O)=O)cc1,9.65%
11,Cc1ccc(C(=O)Nc2ccc3c(c2)OCO3)cc1S(=O)(=O)N1CCCC1,-2.34%
12,CN(C)S(=O)(=O)c1ccc(N2CCCC2=O)c([N+](=O)[O-])c1,-5.38%
13,Clc1ccc(-c2cc(COc3ccccc3)on2)cc1,12.9%
14,O=C(NCc1ccccc1Cl)c1ccc2nnsc2c1,4.01%
15,CCN1C(=O)[C@H]2[C@@H](c3ccc(Cl)cc3)N3C(=O)CN(CC4CC4)C(=O)[C@@]3(C)[C@H]2C1=O,-4.85%
16,COc1ccc(C(=O)NCc2ccncc2)cc1OC,18.9%
17,O=C(Nc1ccccc1N1CCOCC1)c1cccc(NS(=O)(=O)c2ccc(F)c(F)c2)c1,-6.07%
18,O=C(NC(=S)Nc1ccc2oc(=O)ccc2c1)c1cc2ccccc2o1,0.509%
19,CCCCNC(=O)CC(C(=O)N1CCc2ccccc21)n1ccnc1 (centres unmarked),-20.8%
20,COCCNC(=S)N/N=C(\C)c1ccc(O)cc1,-22.5%
21,COc1ccc(N2CCN(Cc3cc(=O)oc4cc(C)c(Cl)c(C)c34)CC2)cc1,11%
22,Cc1ccc(S(=O)(=O)N(C)c2cc(S(=O)(=O)N3CCC(C)CC3)c(C)cc2C)cc1,-9.38%

row,Structure (SMILES),"hERG current change (%, negative = inhibition) at 10uM"
1,CCC(=O)Nc1cccc(C(=O)Nc2nccs2)c1,5.14%
2,Cc1ccc(C)c(NC(=S)NCCN2CCOCC2)c1,2.96%
3,CCn1cc(C(=O)N2CCN(c3cccc(Cl)c3)CC2)c2cc(OC)c(OC)cc2c1=O,-64.8%
4,CCC(Cc1ccccc1)NS(=O)(=O)c1c(C)nc2scc(C)n2c1=O (centres unmarked),11.8%
5,C/C(=N\NC(=O)c1cccc(S(=O)(=O)N2CCCC2)c1)c1ccncc1,-1.9%
6,CCn1c(CNC(=O)c2cccc(C)c2)nnc1SCC(=O)NC1CCCCC1C (centres unmarked),19.1%
7,O=C(Nc1ccc(S(=O)(=O)N2CCCC2)cc1)Nc1ccc(F)cc1F,12%
8,CN(C)c1nc(N)c([N+](=O)[O-])c(NCc2ccccc2)n1,4.16%
9,Cc1cccc(NC(=O)CSc2nc3[nH]ncc3c(=O)n2-c2ccccc2)c1,-41.2%
10,CCC1CCC(C(=O)NC(C(=O)NCCN2CCOCC2)C(C)C)CC1 (centres unmarked),9.32%
11,Oc1ccc(N=Nc2ccc3c(c2)OCCO3)c2ncccc12,3.61%
12,CCC(C)(C)NC(=O)CN(Cc1cccs1)C(=O)CCC(=O)Nc1nccs1,-36.6%
13,O=C(c1n[nH]c(=O)c2ccccc12)N1CCC2(CC1)OCCO2,16.7%
14,Cn1c(Cn2c(=O)sc3ccccc32)nnc1SCC(=O)Nc1ccc2c(c1)OCO2,0.687%
15,Nc1ccc(C(=O)[O-])c(O)c1.O.[Na+],11.7%
16,O=C(OCC(=O)N1CCc2ccccc2C1)c1ccc(N2CCOCC2)c([N+](=O)[O-])c1,-51%
17,CC(=O)c1cc2c(cc1NS(=O)(=O)c1ccccc1C)OCO2,0.0355%
18,CN1CCc2c(c3c(n2C)CCN(C)[C@@H]3c2cccnc2)[C@H]1c1cccnc1.Cl,35.9%
19,O=C(OCCCc1cc2ccccc2c(=O)o1)c1ccc(F)cc1,-37.9%
20,COc1ccccc1CN1CCC(n2nccc2NC(=O)CCCc2ccccc2)CC1,-85.2%
21,COC(=O)c1cc(NC(=O)c2ccccc2)c(=O)oc1C/C=N\OCc1ccc(Cl)cc1Cl,-11.7%
22,CCOc1ccc(NC(=O)NNC(=O)C(C)Oc2ccccc2OC)cc1 (centres unmarked),-0.531%

row,Structure (SMILES),"hERG current change (%, negative = inhibition) at 10uM"
1,O=[N+]([O-])c1cc(C(F)(F)F)ccc1NC1CCN(Cc2ccccc2)CC1,-68%
2,Cc1cccc(NS(=O)(=O)c2ccc(C(=O)N3CCC3)cc2)c1C,1.53%
3,O=[N+]([O-])c1ccc(Oc2cccnc2)nc1,12.7%
4,CCCS(=O)(=O)c1nc(S(=O)(=O)c2ccc(C)cc2)c(N2CCN(CC)CC2)s1,-36.4%
5,CS(=O)(=O)O.Clc1cccc2c1Sc1ccccc1CC2N1CCNCC1 (centres unmarked),-72.4%
6,COc1ccc(C(=O)Nc2cccnc2)cc1C(=O)Nc1cccnc1,20.3%
7,CCOC(=O)c1ccc(NC(=O)Oc2cc(C)c(Cl)cc2C(C)C)cc1,3.44%
8,CC(C)c1ccc(O)c(NC(=O)c2ncn[nH]2)c1,5.34%
9,Cc1ccccc1CNS(=O)(=O)c1c(C)[nH]c(C)c1C(=O)N1CCCCC1,-22.2%
10,CCCCC(=O)Nc1nc(C)c(-c2csc(Nc3cc(Cl)ccc3OC)n2)s1,4.31%
11,N/C(=N\OC(=O)c1ccc(Br)cc1)c1ccncc1,-4.59%
12,CCOc1cccc(C2C(C(=O)c3ccc(C)o3)=C(O)C(=O)N2c2nccs2)c1 (centres unmarked),0.752%
13,COc1ccccc1N(C(C)=O)c1nc(C)cc(C)c1C#N,-4%
14,CCOC(=O)c1sc(C)c2c(=O)n(CC)nnc12,1.94%
15,CC1(C)NC(=O)N(CC(O)COc2ccccc2-c2ccccc2)C1=O (centres unmarked),0.437%
16,O=C1[C@H]2[C@@H](c3ccc(F)cc3)N3C(=O)N(c4ccc(Br)cc4)C(=O)[C@@]3(Cc3ccccc3)[C@H]2C(=O)N1C1CCCCC1,4.66%
17,N#CCOC(=O)c1sccc1-n1cccc1,-4.8%
18,Cc1ccc(OCC2Cn3c(nc4c3c(=O)n(C)c(=O)n4C)O2)cc1 (centres unmarked),-10.9%
19,COC(=O)CNC(=O)c1c(-c2c(Cl)cccc2Cl)noc1C,1.78%
20,CCC(C)c1ccccc1OCCCN(C)Cc1ccccc1 (centres unmarked),-27%
